In all, about 310,000 compounds went through this assay and about 2,200 (0.71%) showed an effect of 50% or more. The effect is printed as a negative number. This is one part of the list.

The target of the test is human ether-à-go-go-related gene (hERG) potassium channel (human, UniProt Q12809). Description: primary screen, population patch clamp on CHO cells stably expressing hERG.
human ether-à-go-go-related gene (hERG) potassium channel, sequence (Q12809 whole entry, looked up): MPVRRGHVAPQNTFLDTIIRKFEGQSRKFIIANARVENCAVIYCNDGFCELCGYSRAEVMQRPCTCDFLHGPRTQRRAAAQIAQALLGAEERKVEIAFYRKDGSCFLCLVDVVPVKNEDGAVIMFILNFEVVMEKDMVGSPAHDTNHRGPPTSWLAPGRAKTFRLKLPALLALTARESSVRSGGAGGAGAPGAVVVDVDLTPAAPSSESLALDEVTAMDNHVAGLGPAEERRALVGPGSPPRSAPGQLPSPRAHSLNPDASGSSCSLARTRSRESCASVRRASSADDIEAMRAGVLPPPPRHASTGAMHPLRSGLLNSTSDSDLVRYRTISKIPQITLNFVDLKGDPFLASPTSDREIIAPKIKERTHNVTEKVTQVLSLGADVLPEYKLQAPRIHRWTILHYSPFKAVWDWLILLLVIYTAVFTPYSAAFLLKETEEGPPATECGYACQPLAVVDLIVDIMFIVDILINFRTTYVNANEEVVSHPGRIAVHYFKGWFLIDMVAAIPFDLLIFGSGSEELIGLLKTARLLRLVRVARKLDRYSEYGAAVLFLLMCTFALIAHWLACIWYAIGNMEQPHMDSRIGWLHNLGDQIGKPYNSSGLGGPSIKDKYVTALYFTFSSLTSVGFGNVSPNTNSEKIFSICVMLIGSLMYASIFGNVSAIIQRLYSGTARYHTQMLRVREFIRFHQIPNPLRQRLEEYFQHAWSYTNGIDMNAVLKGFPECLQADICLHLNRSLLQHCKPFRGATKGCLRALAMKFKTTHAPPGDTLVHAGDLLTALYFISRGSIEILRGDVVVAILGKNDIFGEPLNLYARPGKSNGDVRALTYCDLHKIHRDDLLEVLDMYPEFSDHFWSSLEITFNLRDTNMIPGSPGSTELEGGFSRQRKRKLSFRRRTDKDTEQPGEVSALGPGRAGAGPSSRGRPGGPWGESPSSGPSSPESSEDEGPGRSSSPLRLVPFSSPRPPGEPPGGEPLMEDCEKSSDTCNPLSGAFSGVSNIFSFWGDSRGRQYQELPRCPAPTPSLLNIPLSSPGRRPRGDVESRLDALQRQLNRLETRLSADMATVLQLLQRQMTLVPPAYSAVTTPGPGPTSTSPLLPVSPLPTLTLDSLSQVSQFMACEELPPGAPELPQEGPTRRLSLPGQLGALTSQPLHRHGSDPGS
With `Clc1ccc(CN(Cc2ccc(Cl)cc2)c2nn[nH]n2)cc1`, the “hERG current change (%, negative = inhibition) at 1uM” value was 3.38%.

Consider `CC(C)(C)c1nnc2sc(SCC(=O)N3CCCc4ccccc43)nn2c1=O`, for which the “hERG current change (%, negative = inhibition) at 1uM” value is reported as -2.46%.

Regarding `CCOc1ccc(N2CC(C(=O)NCc3ccc4c(c3)OCO4)CC2=O)cc1` (centres unmarked), the “hERG current change (%, negative = inhibition) at 1uM” value is on record as 4.68%.

Turning to `Cc1ccc(OCCC(=O)Nc2ccc(S(=O)(=O)N3CCCC3)cc2)cc1`, the “hERG current change (%, negative = inhibition) at 1uM” value was 4.2%.

With `COC(=O)c1[nH]c2cc(C)ccc2c1NC(=O)CN1CCOCC1`, the “hERG current change (%, negative = inhibition) at 1uM” value was 7.32%.

On to `CC(C)Cc1nnc(NC(=O)c2ccc3c(c2)OCCO3)s1`, for which the “hERG current change (%, negative = inhibition) at 1uM” value came out at 5.47%.

As for `COc1ccc(OCCC(=O)Nc2cc(C)on2)cc1`, the “hERG current change (%, negative = inhibition) at 1uM” value was 14.2%.

As for `Cc1c(C(=O)N2CCOCC2)c(S(=O)(=O)Nc2ccc(C(C)C)cc2)c(C)n1C`, the “hERG current change (%, negative = inhibition) at 1uM” value was 11.7%.

`Cc1ccc(-c2nc3ncccc3o2)cc1NC(=O)c1sc2ccccc2c1Cl`: the “hERG current change (%, negative = inhibition) at 1uM” value is 1.15%.

Consider `COc1ccc(C(=O)CC(Nc2ccc([N+](=O)[O-])cc2)c2ccc(OC)cc2)cc1` (centres unmarked), for which the “hERG current change (%, negative = inhibition) at 1uM” value is 2.46%.

Take `C=CCOc1ccccc1/C=N/O`: the “hERG current change (%, negative = inhibition) at 1uM” value is -0.514%.

Consider `CCc1oc2ccccc2c1C(=O)c1cc(Br)c(O)c(Br)c1`, for which the “hERG current change (%, negative = inhibition) at 1uM” value turned out to be 5.26%.

As to `O=C1C=C(c2cccc(Cl)c2)C[C@@H](c2ccc(F)cc2)C1`, the “hERG current change (%, negative = inhibition) at 1uM” value was 17.2%.

Take `COc1cccc(C(O)Cc2nc3ccccc3n2C)c1OC` (centres unmarked): the “hERG current change (%, negative = inhibition) at 1uM” value is given as 13.8%.

`COc1ccc2c(Cl)c(C(=O)N/N=C/c3ccncc3)sc2c1`: the “hERG current change (%, negative = inhibition) at 1uM” value is 19.5%.

For `Cc1ccc(NC(=O)c2ccc(Br)o2)cc1S(=O)(=O)N(C)C`, the “hERG current change (%, negative = inhibition) at 1uM” value is recorded as -7.85%.

In the case of `CCOC(=O)C1(CCc2ccccc2)CCN(C(=O)CCn2cnnn2)CC1`, the “hERG current change (%, negative = inhibition) at 1uM” value was -0.0487%.

With `Cc1ccc(NC(=O)CCCn2nc(C)c3c(C)n(-c4ccccc4)nc3c2=O)cc1C`, the “hERG current change (%, negative = inhibition) at 1uM” value is on record as 11.8%.

`CCOC(=O)C1CCCN(Cc2ccc(OC)c(OCc3ccccc3)c2)C1` (centres unmarked): the “hERG current change (%, negative = inhibition) at 1uM” value is given as -10.5%.

`CCc1cc(C(=O)N2CCCC(N3CCN(c4cccc(C(F)(F)F)c4)CC3)C2)n(C)n1` (centres unmarked): the “hERG current change (%, negative = inhibition) at 1uM” value is recorded as -6.89%.

Regarding `O=C(COc1ccc2c3c(c(=O)oc2c1)CCCC3)N1C[C@H]2C[C@@H](C1)c1cccc(=O)n1C2`, the “hERG current change (%, negative = inhibition) at 1uM” value is on record as -6%.

For the compound `O=C(Cn1c(-c2ccccc2)c[n+]2ccsc12)c1ccc(Br)cc1.[Br-]`, the “hERG current change (%, negative = inhibition) at 1uM” value is reported as -0.698%.

Take `O=C(COC(=O)CNC(=O)c1ccc(F)cc1)Nc1cccc(S(=O)(=O)N2CCCC2)c1`: the “hERG current change (%, negative = inhibition) at 1uM” value is 10.2%.

The record behind these values is publication PMC4336329 (PLoS ONE, 2015).
